Experimental data as given in PubChem BioAssay AID1745853 (National Center for Advancing Translational Sciences (NCATS), 2022).
The list shows a part of the results. The main result of the screen is listed elsewhere. These columns were measured beside it and carry no call.

Key:
Test in all cases: Primary Screen for Target Class Profiling of Small Molecule Inhibitors of Methyltransferases
[1] = target: Glycine N-methyltransferase (Homo sapiens) (UniProt Q14749); conditions: purified enzyme, MTase-Glo SAH luminescence; measured here: GNMT inhibition; at 40 µM; stronger effect = lower value
Summary of the method: (§1)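 Each enzyme was reacted with SAM and its substrate, with compounds tested once at 40 uM; SAH formed was read by MTase-Glo luminescence.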

[2] = target: Guanidinoacetate N-methyltransferase (Homo sapiens) (UniProt Q14353); conditions: purified enzyme, MTase-Glo SAH luminescence; measured here: GAMT inhibition; at 40 µM; stronger effect = lower value
Summary of the method: as §1

[3] = target: Histamine N-methyltransferase (Homo sapiens) (UniProt P50135); conditions: purified enzyme, MTase-Glo SAH luminescence; measured here: HNMT inhibition; at 40 µM; stronger effect = lower value
Summary of the method: as §1

[4] = target: Nicotinamide N-methyltransferase (Homo sapiens) (UniProt P40261); conditions: purified enzyme, MTase-Glo SAH luminescence; measured here: NNMT inhibition; at 40 µM; stronger effect = lower value
Summary of the method: as §1

[5] = target: Phenylethanolamine N-methyltransferase (Homo sapiens) (UniProt P11086); conditions: purified enzyme, MTase-Glo SAH luminescence; measured here: PNMT inhibition; at 40 µM; stronger effect = lower value
Summary of the method: as §1
% is scaled to controls: 0 for no effect and ±100 for the full control effect.

| Structure (SMILES) | activity change, negative = inhibition [1] [%] | activity change, negative = inhibition [2] [%] | activity change, negative = inhibition [3] [%] | activity change, negative = inhibition [4] [%] | activity change, negative = inhibition [5] [%] |
| --- | --- | --- | --- | --- | --- |
| COc1cccc(C(=O)N[C@H]2[C@H](O)[C@H](O)C[C@@H]2c2cccnc2)c1 | -1.27 | 4.65 | 1.14 | 4.54 | 17.7 |
| CC(C)CCn1c(=O)c2ccccc2n2c(CCC(=O)NCc3ccccc3)nnc12 | -7.85 | 1.52 | 6.44 | -1.95 | 2.43 |
| CCc1ccc(CN2C(=O)c3nc4ccccc4n3CC2(C)C(=O)NCc2ccccc2)cc1 (stereo not given) | 3.79 | 1.51 | 8.06 | 9.98 | 4.62 |
| Cc1ccccc1Cn1nc2n(C(C)C)c(=O)c3ccc(C(=O)NC(C)C)cc3n2c1=O | 2.32 | 1.01 | 12.1 | -3.23 | 5.18 |
| CCc1ccccc1NC(=O)Cn1nc2n(CCC(C)C)c(=O)c3ccc(C(=O)NC(C)C)cc3n2c1=O | 4.08 | 0 | 4.88 | 3.12 | 4.19 |
| Cc1ccc2nc(NC(=O)CSc3nc4c(c(=O)n3-c3ccc(F)cc3)SCC4)sc2c1 | -5 | -0.828 | 5.76 | -3.68 | 2.88 |
| CC1CCCC(NC(=O)C2(C)Cn3c(cc4sccc43)C(=O)N2Cc2ccccc2)C1C (stereo not given) | -6.22 | 1.19 | -4.1 | -1.79 | -3.4 |
| CCCN1C(=O)c2c(C(=O)NCc3ccc(OC(C)C)cc3)ncn2CC1(C)C(=O)NCc1ccc(OC)cc1 (stereo not given) | -0.104 | 3.52 | -5.8 | 2.18 | 2.13 |
| CCCCNc1c(C(=O)OCC)c(C)nc2c1cnn2CC | -10.6 | -1.83 | -6.49 | -25.1 | -5.02 |
| O=S(=O)(NCCn1c(CCc2ccccc2)nc2ccccc21)c1ccc(Br)cc1 | -1.86 | 0 | -1.11 | -10.7 | 2.24 |
| C[C@@H]1CC[C@]2(C(=O)O[C@@H]3O[C@H](CO)[C@@H](O)[C@H](O)[C@H]3O)CC[C@]3(C)C(=CCC4[C@@]5(C)C[C@@H](O)[C@H](O)[C@@](C)(C(=O)O[C@H]6[C@H](O)C[C@@]7(C)C(CC[C@]8(C)C7CC=C7[C@H]9[C@](C(=O)O[C@@H]%10O[C@H](CO)[C@@H](O)[C@H](O)[C@H]%10O)(CC[C@@H](C)[C@@]9(C)O)CC[C@]78C)[C@@]6(CO)C(=O)O)C5CC[C@]43C)[C@@H]2[C@]1(C)O (stereo not given in full) | -3.84 | 7.09 | 3.71 | -6.3 | 9.85 |
| COc1cccc(-c2ccc(CN3CCCC(N[S+](=O)([O-])c4ccc(C)cc4)C3)cc2)c1 (stereo not given) | -0.468 | -0.451 | 0.749 | -4.28 | -0.462 |
| O=S(=O)(NCc1ccccc1Cl)c1ccc2[nH]c3c(c2c1)CCCC3 | -8.34 | -2.29 | -5.85 | -13.9 | -2.89 |
| CCN(Cc1ccncc1)C(=O)CC1C(=O)NCCN1CCc1ccccc1 (stereo not given) | -3.75 | 3.23 | -38.1 | -2.11 | 7.92 |
| COCCOc1cc2ncnc(Cl)c2cc1OCCOC | 3.63 | 9.95 | 3.94 | -0.075 | 7.41 |
| CCCn1c(=O)c2ccc(C(=O)NC3CCCC3)cc2n2c(=O)n(Cc3ccccc3F)nc12 | -4.34 | 3.3 | -3.8 | -10.6 | -4.89 |
| CCc1ccc(CN2C(=O)c3cc(-c4ccccc4)nn3CC2(C)C(=O)NCc2ccccc2)cc1 (stereo not given) | -3.44 | 1.23 | -4.06 | -3.99 | -6.82 |
| O=C(COc1ccccc1)N1C[C@@H]2C[C@H](C1)c1c(NS(=O)(=O)c3ccccc3)ccc(=O)n1C2 | -5.74 | -8.86 | -2.61 | -12.5 | -7.53 |
| Cc1c(OCC(=O)OCc2ccccc2)ccc2c(-c3ccccc3)cc(=O)oc12 | -2.38 | 0.894 | 7.25 | 5.92 | -1.16 |
| C/C1=C\[C@H]2OC(=O)[C@@H](C)[C@@H]2CC/C(C(=O)O)=C/CC1 | -8.67 | -9.99 | -21.5 | -18 | -2.13 |
| CN(C)CCN1C(=O)c2cc3occc3n2CC1(C)C(=O)NC1CCCCCC1 (stereo not given) | -0.242 | 1.95 | 2.38 | 1.52 | -1.96 |
| CCOc1ccc(CN2C(=O)c3cc(-c4ccccc4)nn3CC2(C)C(=O)NCc2ccccc2)cc1 (stereo not given) | 2.34 | 1.01 | 4.58 | -3.8 | -3.98 |
| O=c1[nH]c(=O)n([C@H]2C[C@H](O)[C@@H](CO)O2)cc1Br | -4 | 3.58 | -3.62 | -9.73 | 2.26 |
| COc1ccc(CCN2C(=O)c3cc4ccccc4n3CC2(C)C(=O)NCCC(C)C)cc1OC (stereo not given) | 3.97 | 1.24 | 5 | -11.2 | 2.94 |
| CN1C(=O)CO[C@H]2CN(Cc3c[nH]c4ccccc34)C[C@H]21 | -6.39 | -14.5 | -6.38 | -22.5 | -17.2 |
| CC(=O)NC(CCC(=O)O)C(=O)NCCc1ccc(O)cc1 (stereo not given) | 1.03 | 8 | -3.62 | -5.08 | 4.34 |
| COc1ccc(CCNC(=O)c2cc3n(n2)CC(C)(C(=O)NCc2ccccc2)N(C)C3=O)c(OC)c1 (stereo not given) | 1.1 | 1.35 | 2.18 | 0.663 | 0.245 |
| O=C(COc1ccccc1)N1CCC(c2n[nH]c(=O)n2Cc2ccc(F)cc2)CC1 | -1.86 | 0.215 | -3.25 | -2.84 | 0.628 |
| Cc1ccc(NC(=O)CSc2nnc3n(C)c(=O)c4ccc(C(=O)NC5CCCC5)cc4n23)cc1 | -1.6 | 2.17 | 1.53 | -1.04 | 2.48 |
